# Measured values from PubChem BioAssay AID686979 (National Center for Advancing Translational Sciences (NCATS), 2013).
# Several values for one entry are separate records, joined by “and”; a condition that tells them apart may be missing. Identical values can stand only once. In all, about 420,000 compounds went through this assay and about 50,000 (12%) were called active. The shares of active, inactive and inconclusive entries below differ from those in the screen. Calls follow the shape of the dose curve; as a rule, active = well fitted inhibition curve with a large enough effect; inconclusive = small, poorly fitted or top-dose-only effect; inactive = flat fitted curve, though single readings scatter. Potencies beside an inconclusive call are fits to weak or partial responses and may not hold up.
# Test: qHTS for Inhibitors of human tyrosyl-DNA phosphodiesterase 1 (TDP1): qHTS in cells in presence of CPT; also: nearly all actives have a fitted effect of over 55% in size
# Conditions: chicken DT40 Tdp1-/-;hTDP1 cells + 20 nM CPT, ATP luminescence, 48 h; activity change, negative = growth inhibition: at 46.2 µM (top of the series) unless noted
# How it was run: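 Chicken DT40 Tdp1-/- cells stably complemented with human TDP1 were seeded at 400 cells/well in medium containing 20 nM camptothecin, exposed to pin-transferred compounds, and grown at 37 °C for at least 48 hr. Viability was read as ATP luminescence.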
# % is scaled to controls: 0 for no effect and ±100 for the full control effect; potency is read from the fitted curve at half-maximal effect; tags tell the direction and shape of the fitted curve.
SMILES,Potency,"activity change, negative = growth inhibition"
CCOC(=O)c1ccc(NC(=S)NC2CC(C)(C)NC(C)(C)C2)cc1,"inconclusive: 29.1 µM [inhibitor, single point]",
COc1ccc(CNC(=O)C2(CC3CC(c4ccccc4)=NO3)CCN(C(=O)C3CCCC3)CC2)cc1 (centres undefined),"inconclusive: 32.6 µM [inhibitor, single point]",
COC(=O)c1ccc2nc(C)cc(Nc3ccccc3C)c2c1,"inconclusive: 18.4 µM [inhibitor, partial curve]",
O=S(=O)(NCCSc1ccccc1)c1cccs1,,inactive: -3.71%
CCN(Cc1ccccc1)Cc1c(O)ccc2c(=O)c(-c3ccccc3OC)c(C(F)(F)F)oc12,"inconclusive: 20.6 µM [inhibitor, single point]",
COc1ccc(NC(=O)c2sc3nc(N4CCCC4)c4c(c3c2N)CC(C)(C)OC4)cc1,"inconclusive: 23.1 µM [inhibitor, single point]",
COc1ncnc2c1NC(=O)CS2,,inactive: -1.52%
N#Cc1nc(COc2ccccc2Cl)oc1N1CCCC1,,inactive: -10.1%
Cc1ccc(NC(=O)CN(C)Cc2cccs2)cc1Cl,"inconclusive: 29.1 µM [inhibitor, single point]",
CC(=O)N1c2ccc(S(=O)(=O)NCCC(=O)NC3CCC(C)CC3)cc2CC1C (centres undefined),,inactive: -18%
Cc1c(C)n(Cc2ccccc2)c2ccc(C(=O)NC(C)c3ccccc3)cc12 (centres undefined),active: 16.4 µM,
CC(=O)Nc1nonc1-c1nnc(SCC(=O)Nc2ccc(F)cc2F)n1-c1ccccc1,"inconclusive: 18.4 µM [inhibitor, single point]",
COc1ccccc1NC(=O)c1oc2ccc(C)cc2c1C,"inconclusive: 32.6 µM [inhibitor, single point]",
CC1=CSC2=NC(=O)/C(=C\c3cccn3-c3ccccc3)C(=N)N12,"inconclusive: 23.1 µM [inhibitor, single point]",
O=C(N/N=C/c1ccccc1C(=O)O)c1ccc(COc2cccc3cccnc23)cc1,,inactive: -5.04%
Cc1ccc(C(=O)CSC2=C(C#N)C(c3ccco3)C3=C(CC(C)(C)CC3=O)N2)cc1 (centres undefined),active: 13 µM,
Cc1c(NC(=O)[C@@H](NC(=O)c2ccc(Cl)c([N+](=O)[O-])c2)C(C)C)c(=O)n(-c2ccccc2)n1C,,inactive: 2.58%
COc1ccc(C2=NN(c3nc4ccccc4s3)C(=O)C2)cc1,active: 20.6 µM,
COc1ccc(NC(=O)CSc2nnc(-c3ccc(F)cc3)o2)cn1,,inactive: -1.54%
Fc1ccc(/C=N/NC(=S)NCCc2ccccc2)cc1F,"inconclusive: 18.4 µM [inhibitor, single point]",
Cc1ccccc1NS(=O)(=O)c1ccc(C(=O)NCC(c2ccco2)N2CCCCC2)cc1 (centres undefined),"inconclusive: 29.1 µM [inhibitor, single point]",
COc1ccc(N2CC(NC(=O)/C=C\c3ccc(OC)c(OC)c3)CC2=O)cc1 (centres undefined),,inactive: -13%

SMILES,Potency,"activity change, negative = growth inhibition"
O=C(C=Cc1ccccc1)NCCNC(=O)C=Cc1ccccc1,,inactive: -15.5%
CCOC(=O)N1CCN(S(=O)(=O)N2CCCC(C(=O)NCc3cc(OC)ccc3OC)C2)CC1 (centres undefined),"inconclusive: 29.1 µM [inhibitor, single point] and inconclusive: 25.9 µM [inhibitor, single point]",
COc1ccc(Cl)cc1NS(=O)(=O)c1cccc(C(=O)NC2CCN(Cc3ccccc3)CC2)c1,"inconclusive: 25.9 µM [inhibitor, single point]",
COc1ccc(C)cc1NC(=O)CN1C(=O)COc2ccc(C)cc21,,inactive: 0.063%
Cn1c(CNC(=O)C(Cc2ccccc2)NC(=O)c2cccc(F)c2)cc(=O)n(C)c1=O (centres undefined),"inconclusive: 29.1 µM [inhibitor, single point]",
CC(=O)NCCNc1nc(NCC2CC2)nc2cc(-c3ccccc3)sc12,"inconclusive: 16.4 µM [inhibitor, single point]",
CC(C(=O)Nc1ccc(Cl)cc1Cl)N1C(=O)NC2(CCCC2)C1=O (centres undefined),,inactive: -14.9%
CCc1ccc(OCC(=O)N(Cc2cccs2)c2ccc(Cl)cc2)cc1,"inconclusive: 29.1 µM [inhibitor, single point]",
CC(=O)c1cccc(NC(=O)CCNC(=O)c2cccc(C)c2)c1,,inactive: -3.47%
COc1ccc(NC(=O)C2CCCN(CCCc3ccccc3)C2)cc1OCC(C)C (centres undefined),active: 7.31 µM,
c1cncc(-c2nc(N3CCNCC3)c3ccccc3n2)c1,"inconclusive: 29.1 µM [inhibitor, single point]",
Cc1ccc(C)c(NC(=O)CCC(=O)NNC(=O)c2cccc([N+](=O)[O-])c2)c1,,inactive: -19.2%
O=C(c1ccc(-c2ccccc2)cc1)N1CCN(Cc2ccccn2)CC1,"inconclusive: 14.6 µM [inhibitor, partial curve, poor fit]",
CN(C(=O)CSc1nnc(Nc2ccccc2)s1)c1c(N)n(Cc2ccccc2)c(=O)[nH]c1=O,"inconclusive: 25.9 µM [inhibitor, single point]",
Cc1ccc(S(=O)(=O)N2[C@@H](c3cccc(C)c3)C(C(=O)O)=C[C@H]2CC2CCCC2)cc1,,inactive: -0.7%
CN(Cc1ccccc1)C(=O)C1CCN(S(=O)(=O)c2cc([N+](=O)[O-])ccc2Cl)CC1,"inconclusive: 18.4 µM [inhibitor, single point]",
CC1CCCN(C(=O)CSc2nnc(-c3ccc(O)cc3)o2)C1 (centres undefined),,inconclusive: -32.9% [inhibitor]
Nc1nc(SCC(=O)c2ccc(Oc3ccccc3)cc2)n[nH]1,"inconclusive: 22.4 µM [inhibitor, single point]",
CC(=O)N(CCc1ccccc1)c1ccc2c(c1)C1CC2CCN1C(=O)OCc1ccccc1 (centres undefined),active: 8.2 µM,
CC(=O)c1ccc(N2CCN(C(=O)CNS(=O)(=O)c3ccc4c(c3)OCCCO4)CC2)c(F)c1,"inconclusive: 29.1 µM [inhibitor, single point]",
Cc1oc(-c2ccccc2NC(=O)c2ccccc2)nc1CNC(=O)c1cccc(-n2cccn2)c1,,inactive: -15.8% [at 9.04 µM]
COc1ccc(CCN2CC(C(=O)N(C)Cc3ccccc3OC)CCC2=O)cc1 (centres undefined),"inconclusive: 13 µM [inhibitor, partial curve]",
